Where “and” joins values, the source holds several entries; their conditions need not be identical. Equal entries are not always repeated. In all, about 94,000 compounds went through this assay and about 4,000 (4.3%) were called active. Inconclusive results, whose numbers are uncertain, are shown with a selection of clear calls. The call rests on the fitted dose curve; in most records, active means well fitted inhibition curve with a large enough effect; inconclusive means small, poorly fitted or top-dose-only effect; inactive means no such curve, though single readings can be large or run the other way. Potencies beside an inconclusive call are fits to weak or partial responses and may not hold up.
Assay: Cytotoxic Profiling in NIH 3T3 Cell Line of Diverse Libraries Using Quantitative High-Throughput Screening; further: nearly all actives have a fitted effect of over 55% in size
Settings: NIH 3T3 viability, CellTiter-Glo ATP luminescence, 48-72 h; activity change, negative = cytotoxicity: at 96.7 µM (top of the series); series mostly up to 96.7 µM
Outline: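 Mouse fibroblast NIH 3T3 cells, 400 per well, received compound via pintool and were incubated for 48 or 72 hr prior to CellTiter-Glo ATP luminescence measurement.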
On the % scale 0 is the no-effect control and ±100 the full control effect; potency means the concentration at half of the fitted maximal effect; tags describe the fitted curve by direction and shape.

Structure (SMILES) | activity change, negative = cytotoxicity | Potency | outcome
CCOC(=O)C1=C(C)N=C2SC=C(CC(=O)N3CCOCC3)N2C1c1cccc([N+](=O)[O-])c1 (stereo unspecified) | inactive: -3.09% | – | –
COc1ccccc1OCC(=O)c1ccc2c(c1)N(C(C)C(=O)NCCc1ccccc1)C(=O)CO2 (stereo unspecified) | – | inconclusive: 70.8 µM [inhibitor, single point] | –
CN(Cc1ccccc1Cl)C(=O)c1coc(COc2ccc3c(c2)OCO3)n1 | – | inconclusive: 39.8 µM [inhibitor, partial curve, poor fit] | –
CC(=O)N1CCC([C@@H]2CN(Cc3cc(F)c(F)c(F)c3)C[C@H]2CO)CC1 | inactive: -7.58% | – | –
CCC1Oc2ccc(NC(=O)c3ccccc3F)cc2CN(Cc2ccccc2F)C1=O (stereo unspecified) | – | inconclusive: 50.1 µM [inhibitor, partial curve, poor fit] | –
CCn1nc(C)cc1C(=O)N1CCCC(CCC(=O)NCc2ccc(OC)cc2OC)C1 (stereo unspecified) | – | inconclusive: 28.2 µM [inhibitor, full curve] | –
CC(=O)N1CCc2c(nc(-c3ccccn3)nc2N(C)CCCN(C)C)C1 | – | – | inactive
Cc1ncc2n1C(=O)N(C1CCN(Cc3ccccc3)CC1)C2 | – | inactive and inconclusive: 100 µM [inhibitor, partial curve, poor fit] | –
Cc1ccccc1C(=O)N1CCC(N2C(=O)c3c(c(C)nn3-c3ccccc3)C2C)C1 (stereo unspecified) | – | inconclusive: 44.7 µM [inhibitor, partial curve, poor fit] | –
O=C(N[C@H]1CO[C@H]2[C@@H]1OC[C@@H]2Nc1nccc(-c2ccc(-c3ccccc3)cc2)n1)c1ccccc1 | – | inconclusive: 17.8 µM [inhibitor, full curve, poor fit] | –
CCN1c2cc(C(=O)NCCc3ccccc3)ccc2C(=O)N2CCCCC21 (stereo unspecified) | – | inconclusive: 56.2 µM [inhibitor, partial curve, poor fit] | –
Cc1cc(=O)n(CC(=O)Nc2cccc(C)c2C)c(N(C)Cc2ccccc2)n1 | – | inconclusive: 44.7 µM [inhibitor, partial curve, poor fit] | –
COc1ncc(CN2CC[C@@H]3OCC(=O)N(Cc4cccc(C(N)=O)c4)[C@H]3CC2)cn1 | – | inconclusive: 100 µM [inhibitor, single point] | –
O=C(NCCc1ccccc1F)c1nc2sccn2c1-c1ccc(F)cc1 | – | inconclusive: 44.7 µM [inhibitor, partial curve, poor fit] | –
CN(CCc1noc(C2CN(Cc3ccc(F)c(F)c3)C2)n1)C(=O)C1CC1 | – | inconclusive: 44.7 µM [inhibitor, partial curve, poor fit] | –
COCCCNC(=O)c1cn2cc(-c3ccc(OC)cc3)sc2n1 | – | active: 39.8 µM | –

From PubChem BioAssay AID1345082 (National Center for Advancing Translational Sciences (NCATS), 2018)
